Source: the supplement of paper PMC10670038
“And” between values parts separate entries of the source, which are not always exact repeats. Equal entries are not always repeated. Structures can show the parent of a compound that is named as a salt. ± gives the standard deviation of the averaged measurements. In all, about 2,000 compounds were measured (“relative cell viability vs DMSO, compound + 0.2 uM CuET”: median about 1, lowest 2% from about 0.25 on). The list shows a part of the results.

Test system: TE10
Assay: relative cell viability vs DMSO, compound + 0.2 uM CuET (fraction); TE10 is an esophageal squamous carcinoma line; higher = less cytotoxic
Settings: 2 µM; co-treatment: CuET (bis(diethyldithiocarbamate)copper) 0.2 uM; 48 h
Protocol: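 TE10 ESCC cells (1,000/well, 384-well plates) were treated with Selleck bioactive library compounds at 2 uM combined with 0.2 uM CuET (copper diethyldithiocarbamate) for 48 h. Viability was read by CellTiter-Glo and expressed relative to DMSO wells. Two technical replicates (A, B).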

Structure (SMILES) | relative cell viability
CC(C)Nc1cc(-c2c[nH]c(C(=O)N[C@H](CO)c3cccc(Cl)c3)c2)c(Cl)cn1 | 0.937 ± 0.02
CCCSc1ccc2[nH]c(NC(=O)OC)nc2c1 [Albendazole] | 0.786 ± 0.049
Cc1c(Cl)cccc1Nc1ccccc1C(=O)O [Tolfenamic Acid] | 1.14 ± 0.077
CO[C@H]1/C=C/O[C@@]2(C)Oc3c(C)c(O)c4c(O)c(c(/C=N/N5CCN(C)CC5)c(O)c4c3C2=O)NC(=O)/C(C)=C\C=C\[C@H](C)[C@H](O)[C@@H](C)[C@@H](O)[C@@H](C)[C@H](OC(C)=O)[C@@H]1C [Rifampin] | 0.92 ± 0.073
COc1cc(F)c(C(C)C)cc1-c1ccc(C(F)(F)F)cc1CN1C(=O)O[C@H](c2cc(C(F)(F)F)cc(C(F)(F)F)c2)[C@@H]1C [Anacetrapib (MK-0859)] | 1.17 ± 0.019
COC(=O)[C@H](c1ccccc1Cl)N1CCc2sccc2C1 [Clopidogrel] | 1.22 ± 0.034
COCCCC/C(=N\OCCN)c1ccc(C(F)(F)F)cc1 [Fluvoxamine maleate] | 1.06 ± 0.015
O=C(Nc1cc(C(F)(F)F)cc(C(F)(F)F)c1)c1cc(Cl)ccc1O | 0.317 ± 0.038
NC(=O)N1CCC(CC(=O)N2CCC([C@H]3c4ncc(Br)cc4CCc4cc(Cl)cc(Br)c43)CC2)CC1 [Lonafarnib] | 1.025 ± 0.0057
C[C@H](N[C@@H](CCc1ccccc1)C(=O)O)C(=O)N1CCC[C@H]1C(=O)O [Enalaprilat Dihydrate] | 1.01 ± 0.027
CC(C)C[C@H](NC(=O)[C@H](Cc1ccccc1)NC(=O)c1cnccn1)B(O)O [Bortezomib (PS-341)] | 0.348 ± 0.058
Cc1ccc2c(c1)C(=O)C1(O)CCN(c3ccccc3)C1=N2 (single isomer, unassigned; (-)) [(-)-Blebbistatin] | 1.19 ± 0.12
COc1ccc(CC(C)NCC(O)c2ccc(O)c(NC=O)c2)cc1 (centres undefined) [Formoterol Hemifumarate] | 1.04 ± 0.067
O=C1C(c2c(O)[nH]c3ccccc23)=Nc2ccccc21 [Indirubin] | 0.978 ± 0.15
CS(=O)(=O)c1ccc(C(=O)Nc2ccc(Cl)c(-c3ccccn3)c2)c(Cl)c1 [Vismodegib (GDC-0449)] | 1.05 ± 0.12
CN1CCN(S(=O)(=O)c2ccc(-c3cnc(N)c(C(=O)Nc4cccnc4)n3)cc2)CC1 | 0.802 ± 0.14
COc1ccc(-c2coc3cc(O)ccc3c2=O)cc1 [Formononetin] | 0.968 ± 0.14
CNc1nc(-c2ccc3c(N)n[nH]c3c2)cc(N2C[C@@H](C(=O)NC3CCCCC3)CC[C@H]2C)n1 | 1.06 ± 0.091
Oc1c(Br)cc(Br)c2cccnc12 [Broxyquinoline] | 0.689 ± 0.033
Nc1ccc2ncnc(NCCc3ccc(Oc4ccccc4)cc3)c2c1 | 0.8482 ± 0.0067
Nc1nc(F)nc2c1ncn2[C@@H]1O[C@H](COP(=O)(O)O)[C@@H](O)[C@@H]1O [Fludarabine Phosphate] | 0.325 ± 0.17
O=C(NOCC1CC1)c1ccc(F)c(F)c1Nc1ccc(I)cc1Cl | 0.64 ± 0.17
O=C(COc1ccc(C(=O)c2ccccc2)cc1)NC1CCN(Cc2ccccc2)CC1 [AdipoRon] | 1.11 ± 0.045
CC1(C)CCC(c2ccc(Cl)cc2)=C(CN2CCN(c3ccc(C(=O)NS(=O)(=O)c4ccc(N[C@H](CCN5CCOCC5)CSc5ccccc5)c(S(=O)(=O)C(F)(F)F)c4)cc3)CC2)C1 [ABT-263 (Navitoclax)] | 0.368 ± 0.097
C1N2CN3CN1CN(C2)C3 [Methenamine] | 1.05 ± 0.1

Structure (SMILES) | relative cell viability
C=C(C)[C@@H]1CC[C@]2(C(=O)O)CC[C@]3(C)[C@H](CC[C@@H]4[C@@]5(C)CC[C@H](O)C(C)(C)[C@@H]5CC[C@]43C)[C@@H]12 [Betulinic acid] | 0.945 ± 0.13
c1ccc2c(c1)CCCC2C1=NCCN1 (centres undefined) [Tetrahydrozoline HCl] | 1.27 ± 0.14
CC(C)OC(=O)C(C(=O)OC(C)C)=C1SC=CS1 [Malotilate] | 1.19 ± 0.11
CNc1ncnc2c1ncn2[C@@H]1O[C@H](CO)[C@@H](O)[C@H]1O [N6-methyladenosine (m6A)] | 1.06 ± 0.23
CC(=O)N[C@@H](CC(C)C)C(=O)N[C@@H](CC(C)C)C(=O)N[C@H](C=O)CCCNC(=N)N [Leupeptin Hemisulfate] | 1.16 ± 0.025
CS(=O)(=O)c1ccc([C@@H](O)[C@@H](CF)NC(=O)C(Cl)Cl)cc1 [Florfenicol] | 1.28 ± 0.081
O=C(COc1cccc2c(=O)[nH]ccc12)c1ccccc1 | 1.23 ± 0.17
CC(C)c1nc(N(C)S(C)(=O)=O)nc(-c2ccc(F)cc2)c1/C=C/[C@@H](O)C[C@@H](O)CC(=O)O [Rosuvastatin Calcium] | 1.07 ± 0.046
CCCCCOc1ccc(-c2ccc(-c3ccc(C(=O)N[C@H]4C[C@@H](O)[C@@H](O)NC(=O)[C@@H]5[C@@H](O)[C@@H](C)CN5C(=O)[C@H]([C@@H](C)O)NC(=O)[C@H]([C@H](O)[C@@H](O)c5ccc(O)cc5)NC(=O)[C@@H]5C[C@@H](O)CN5C(=O)[C@H]([C@@H](C)O)NC4=O)cc3)cc2)cc1 | 0.991 ± 0.011
O=C1NC(=O)C(c2ccccc2[N+](=O)[O-])=C1Nc1ccc(O)c(Cl)c1 | 1.28 ± 0.072
CCCc1ncc(C[n+]2ccccc2C)c(N)n1 [Amprolium HCl] | 1.39 ± 0.11
COCCOc1nc(-c2ccc(Cl)c(Cl)c2)n(-c2ccc(NC(=O)CCl)cc2)n1 [MI-2 (MALT1 inhibitor)] | 0.115 ± 0.0096
CC(C(=O)O)c1cccc(Oc2ccccc2)c1 (centres undefined) [Fenoprofen Calcium] | 0.963 ± 0.063
CC(C(=O)O)c1cccc(Oc2ccccc2)c1 (centres undefined) [Fenoprofen calcium hydrate] | 1.15 ± 0.11
C[C@H](NCc1ccc(OCc2cccc(F)c2)cc1)C(N)=O [Safinamide Mesylate] | 1.2 ± 0.021
CCn1cc(C(=O)O)c(=O)c2cc(F)c(N3CCNCC3)nc21 [Enoxacin] | 1.03 ± 0.012
CC(=O)OCC(=O)NCCCOc1cccc(CN2CCCCC2)c1 [Roxatidine Acetate HCl] | 1.07 ± 0.064
OC[C@@H](O)[C@@H](O)[C@H](O)[C@H](O)CO [D-Mannitol] | 1.06 ± 0.036
O=C(O)C(Cc1ccccc1[N+](=O)[O-])=NNc1nc(-c2ccc(Cl)c(Cl)c2)cs1 | 1.04 ± 0.16
COc1cc(Br)c(Nc2nc(-c3c(C)nc4ncccn34)cs2)c(Br)c1 | 0.757 and 0.771
CC(=Cc1ccc(C(=O)O)cc1)c1ccc2c(c1)C(C)(C)CCC2(C)C [TTNPB (Arotinoid Acid)] | 1.01 ± 0.036
COC(=O)Nc1nc2cc(C(=O)c3cccs3)ccc2[nH]1 [Nocodazole] | 0.681 ± 0.07
CC(C)c1c(C(=O)Nc2ccccc2)c(-c2ccccc2)c(-c2ccc(F)cc2)n1CC[C@@H](O)C[C@@H](O)CC(=O)O [Atorvastatin Calcium] | 0.931 ± 0.01
CCN[C@H]1CN(CCCOC)S(=O)(=O)c2sc(S(N)(=O)=O)cc21 [Brinzolamide] | 0.949 ± 0.069
CC(C)(C)c1cnc(CSc2cnc(NC(=O)C3CCNCC3)s2)o1 | 0.963 ± 0.093

Structure (SMILES) | relative cell viability
CC(=O)Nc1cccc(-n2c(=O)n(C3CC3)c(=O)c3c(Nc4ccc(I)cc4F)n(C)c(=O)c(C)c32)c1 | 0.664 ± 0.049
C[C@@H](NCCCc1cccc(C(F)(F)F)c1)c1cccc2ccccc12 [Cinacalcet HCl] | 0.733 ± 0.12
Nc1[nH]cnc2ncnc1-2 [Adenine HCl] | 1.89 ± 0.0031
NCCc1c[nH]cn1 [Histamine 2HCl] | 1.22 ± 0.027
OC(Cn1cncn1)(Cn1cncn1)c1ccc(F)cc1F [Fluconazole] | 1.18 ± 0.1
O=C1NC(=O)C(c2cnc3ccccn23)=C1c1cn2c3c(cc(F)cc13)CN(C(=O)N1CCCCC1)CC2 | 0.97083 ± 4.9e-05
Cc1ccc(S(=O)(=O)c2ccc([N+](=O)[O-])o2)cc1 | 0.175 ± 0.0036
COc1cc2ncnc(Sc3nnc(C)s3)c2cc1OC | 0.639 ± 0.09
O=C(NC[C@H](O)CN1CCc2ccccc2C1)c1cc(NC2COC2)ncn1 | 0.956 ± 0.038
CC[C@H]1[C@@H](O)[C@@H]2[C@H](CC[C@]3(C)[C@@H]([C@H](C)CCC(=O)O)CC[C@@H]23)[C@@]2(C)CC[C@@H](O)C[C@@H]12 [Obeticholic Acid] | 0.797 ± 0.16
CNC1CCCN(c2c(F)cc3c(=O)c(C(=O)O)cn(C4CC4)c3c2OC)C1 (centres undefined) [Balofloxacin] | 1.07 ± 0.17
C[C@@H](Oc1ccc2[nH]nc(/C=C/c3cnn(CCO)c3)c2c1)c1c(Cl)cncc1Cl | 0.471 ± 0.018
CO[C@H]1/C=C/O[C@@]2(C)Oc3c(C)c(O)c4c(O)c(c(/C=N/N5CCN(C6CCCC6)CC5)c(O)c4c3C2=O)NC(=O)/C(C)=C\C=C\[C@H](C)[C@H](O)[C@@H](C)[C@@H](O)[C@@H](C)[C@H](OC(C)=O)[C@@H]1C [Rifapentine] | 0.922 ± 0.086
N=C(N)NC(=N)NCCc1ccccc1 [Phenformin HCl] | 1.02 ± 0.053
CN1CCC(=C2c3ccccc3C=Cc3ccccc32)CC1 [Cyproheptadine HCl] | 1.06 ± 0.016
CC(=O)Nc1ccc(C(=O)Nc2ccccc2N)cc1 [CI994 (Tacedinaline)] | 1.23 ± 0.26
COc1cc2c(Nc3ccc(NC(=O)c4ccccc4)cc3)ncnc2cc1OCCCN1CCOCC1 | 0.9438 ± 0.0089
O=C(O)[C@]1(Cc2cccc(Nc3nccs3)n2)CC[C@@H](Oc2cccc(Cl)c2F)CC1 | 1.02 ± 0.029
CC(=O)S[C@@H]1CC2=CC(=O)CC[C@]2(C)[C@H]2CC[C@@]3(C)[C@@H](CC[C@@]34CCC(=O)O4)[C@H]12 [Spironolactone] | 1.05 ± 0.066
C#Cc1cccc(Nc2ncnc3cc(OC)c(OCCCCCCC(=O)NO)cc23)c1 | 0.182 ± 0.024
CCCc1cc(C(N)=S)ccn1 [Protionamide] | 1.14 ± 0.091
COc1cccc2c1c(O)c(C(=O)N(C)c1ccc(C(F)(F)F)cc1)c(=O)n2C [Tasquinimod] | 1.16 ± 0.11
CN(C)C(=O)Nc1cccc(-c2ccc(N(C)C)cc2)c1 [Atglistatin] | 1.1 ± 0.063
C[C@@]1(C(=O)Nc2ccc(F)nc2)CCCN1c1nc(Nc2cc(C3CC3)n[nH]2)c2cccn2n1 | 0.567 ± 0.15
